From the supplement of paper PMC10369915 come the findings set out here.

Some of the results follow. Cut-off read from the data, not from the text of the source: active = 3.2 or more and inactive = the rest. Only a few entries rise above the background.
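Note: displayed peptides selected on beads carrying the immobilized SH2 domain, with library peptides lacking any tyrosine serving as negative controls.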

The target of one assay is SHP2 C-SH2 domain E139D. The experiment in a line: enrichment score (SH2-bound / input frequency) (ratio); bacterial display of known human phosphotyrosine sites (pTyr-Var adds point mutants) read by sequencing; higher = stronger binding; tyrosines were phosphorylated by kinases first. The following applies: peptide library: pTyr-Var.
With IRTDAYVRAMT [RPE65_Y89], the enrichment score was inactive: 0.772.
Same read-out and setting: to QNVADYMRYLM [RPL5_Y207] belongs inactive: 0.933.
Still for that read-out and setting: to VPLATYMQIFK [RPL21_Y30_R32Q_YF] belongs inactive: 1.32; to IRTDAYVQAMT [RPE65_Y89_R91Q], inactive: 0.898; to IGVGSYSVCKR [RPS6KA3_Y433], inactive: 0.642.
Regarding RLNCIYYKDQT [RS1_Y165_W163C], the enrichment score was inactive: 1.52.
For the molecule RRGTRYMSSRP [RPL21_Y13_F15S], the enrichment score was inactive: 0.187.
As to QNVADYMRCLM [RPL5_Y207_Y210C], the enrichment score was inactive: 0.807.
With CDDGKYVYVVT [RPS6KA3_Y488_Y483C], the enrichment score was inactive: 0.745.
On the same count and under the same terms, to IHTDAYVRAMT [RPE65_Y89_R85H] belongs inactive: 0.806; to GEKKAYVRLAP [RPL23A_Y137], inactive: 0.829.
On the same count and under the same terms, as for HEKKVYSFCGT [RPS6KA3_Y226_A225V], the figure is inactive: 0.89; as for TQPSPYAVFLF [RPGRIP1_Y823_R827L_YF], inactive: 0.745; as for KRIKLYNQEND [RPGRIP1L_Y448], inactive: 1.02.
On the same count and under the same terms, as for GDKKAYVRLAP [RPL23A_Y137_E133D], the figure is inactive: 0.696.
Turning to SPYAVYLFFTF [RPGRIP1_Y826_R827L], the enrichment score is inactive: 0.681.
Still for that read-out and setting: as for VSLEAYCKHKY [RXRA_Y403_A398V], the figure is inactive: 1.26.
Same read-out and setting: to TQPSPYAVYLF [RPGRIP1_Y823_R827L] belongs inactive: 0.993; to YDDGKYVYVVT [RPS6KA3_Y488], inactive: 0.707.

The target of the next assay is SHP2 C-SH2 domain wild-type. Described as above. Conditions: peptide library: pTyr-Var.
As to IRTDAYVRAMT [RPE65_Y89], the enrichment score is inactive: 0.647.
The same measure, in the same setting: to QNVADYMRYLM [RPL5_Y207] belongs inactive: 0.736; to VPLATYMQIFK [RPL21_Y30_R32Q_YF], inactive: 0.75.
Still for that read-out and setting: as for IRTDAYVQAMT [RPE65_Y89_R91Q], the figure is inactive: 0.794; as for IGVGSYSVCKR [RPS6KA3_Y433], inactive: 0.957.
On to RLNCIYYKDQT [RS1_Y165_W163C], for which the enrichment score was inactive: 1.6.
On the same count and under the same terms, as for RRGTRYMSSRP [RPL21_Y13_F15S], the figure is inactive: 0.176; as for QNVADYMRCLM [RPL5_Y207_Y210C], inactive: 0.793; as for CDDGKYVYVVT [RPS6KA3_Y488_Y483C], inactive: 0.965.
Same read-out and setting: as for IHTDAYVRAMT [RPE65_Y89_R85H], the figure is inactive: 0.754; as for GEKKAYVRLAP [RPL23A_Y137], inactive: 0.853.
For the molecule HEKKVYSFCGT [RPS6KA3_Y226_A225V], the enrichment score is inactive: 0.921.
Consider TQPSPYAVFLF [RPGRIP1_Y823_R827L_YF], for which the enrichment score was inactive: 0.752.
Same read-out and setting: to KRIKLYNQEND [RPGRIP1L_Y448] belongs inactive: 0.769.
On to GDKKAYVRLAP [RPL23A_Y137_E133D], for which the enrichment score was inactive: 0.605.
Turning to SPYAVYLFFTF [RPGRIP1_Y826_R827L], the enrichment score is inactive: 0.932.
The same measure, in the same setting: to VSLEAYCKHKY [RXRA_Y403_A398V] belongs inactive: 0.761; to TQPSPYAVYLF [RPGRIP1_Y823_R827L], inactive: 1.41.
Same read-out and setting: as for YDDGKYVYVVT [RPS6KA3_Y488], the figure is inactive: 0.637.

A further assay addresses SHP2 N-SH2 domain L43F. The assay is described as above. The following applies: peptide library: pTyr-Var.
As for IRTDAYVRAMT [RPE65_Y89], the enrichment score is inactive: 0.701.
The same measure, in the same setting: as for QNVADYMRYLM [RPL5_Y207], the figure is inactive: 0.808; as for VPLATYMQIFK [RPL21_Y30_R32Q_YF], inactive: 0.988.
On to IRTDAYVQAMT [RPE65_Y89_R91Q], for which the enrichment score is inactive: 0.881.
The same measure, in the same setting: to IGVGSYSVCKR [RPS6KA3_Y433] belongs inactive: 0.709; to RLNCIYYKDQT [RS1_Y165_W163C], inactive: 1.11.
Still for that read-out and setting: to RRGTRYMSSRP [RPL21_Y13_F15S] belongs inactive: 0.238; to QNVADYMRCLM [RPL5_Y207_Y210C], inactive: 0.873; to CDDGKYVYVVT [RPS6KA3_Y488_Y483C], inactive: 0.847.
As for IHTDAYVRAMT [RPE65_Y89_R85H], the enrichment score is inactive: 0.717.
Same read-out and setting: to GEKKAYVRLAP [RPL23A_Y137] belongs inactive: 0.816.
Take HEKKVYSFCGT [RPS6KA3_Y226_A225V]: the enrichment score is inactive: 0.888.
On the same count and under the same terms, to TQPSPYAVFLF [RPGRIP1_Y823_R827L_YF] belongs inactive: 0.735.
For KRIKLYNQEND [RPGRIP1L_Y448], the enrichment score is inactive: 0.788.
The same measure, in the same setting: to GDKKAYVRLAP [RPL23A_Y137_E133D] belongs inactive: 0.548; to SPYAVYLFFTF [RPGRIP1_Y826_R827L], inactive: 0.802; to VSLEAYCKHKY [RXRA_Y403_A398V], inactive: 0.879.
On the same count and under the same terms, as for TQPSPYAVYLF [RPGRIP1_Y823_R827L], the figure is inactive: 1.23; as for YDDGKYVYVVT [RPS6KA3_Y488], inactive: 0.706.

The next assay deals with SHP2 N-SH2 domain T42A. Described as above. Conditions: peptide library: pTyr-Var.
As to IRTDAYVRAMT [RPE65_Y89], the enrichment score is inactive: 0.584.
Same read-out and setting: to QNVADYMRYLM [RPL5_Y207] belongs inactive: 0.706; to VPLATYMQIFK [RPL21_Y30_R32Q_YF], inactive: 0.865; to IRTDAYVQAMT [RPE65_Y89_R91Q], inactive: 0.604.
On the same count and under the same terms, to IGVGSYSVCKR [RPS6KA3_Y433] belongs inactive: 0.734.
On the same count and under the same terms, as for RLNCIYYKDQT [RS1_Y165_W163C], the figure is inactive: 1.29.
On to RRGTRYMSSRP [RPL21_Y13_F15S], for which the enrichment score was inactive: 0.307.
Same read-out and setting: as for QNVADYMRCLM [RPL5_Y207_Y210C], the figure is inactive: 0.784.
On the same count and under the same terms, to CDDGKYVYVVT [RPS6KA3_Y488_Y483C] belongs inactive: 0.675; to IHTDAYVRAMT [RPE65_Y89_R85H], inactive: 0.734.
With GEKKAYVRLAP [RPL23A_Y137], the enrichment score was inactive: 0.757.
On to HEKKVYSFCGT [RPS6KA3_Y226_A225V], for which the enrichment score was inactive: 0.841.
Same read-out and setting: as for TQPSPYAVFLF [RPGRIP1_Y823_R827L_YF], the figure is inactive: 0.851; as for KRIKLYNQEND [RPGRIP1L_Y448], inactive: 0.787; as for GDKKAYVRLAP [RPL23A_Y137_E133D], inactive: 0.593.
Same read-out and setting: as for SPYAVYLFFTF [RPGRIP1_Y826_R827L], the figure is inactive: 0.706; as for VSLEAYCKHKY [RXRA_Y403_A398V], inactive: 0.515; as for TQPSPYAVYLF [RPGRIP1_Y823_R827L], inactive: 1.16.
For YDDGKYVYVVT [RPS6KA3_Y488], the enrichment score was inactive: 0.777.

The next assay addresses SHP2 N-SH2 domain T52S. The assay is described as above. Conditions: peptide library: pTyr-Var.
With IRTDAYVRAMT [RPE65_Y89], the enrichment score was inactive: 0.645.
On to QNVADYMRYLM [RPL5_Y207], for which the enrichment score is inactive: 0.872.
On to VPLATYMQIFK [RPL21_Y30_R32Q_YF], for which the enrichment score was inactive: 0.811.
On the same count and under the same terms, as for IRTDAYVQAMT [RPE65_Y89_R91Q], the figure is inactive: 0.969; as for IGVGSYSVCKR [RPS6KA3_Y433], inactive: 0.565.
The same measure, in the same setting: to RLNCIYYKDQT [RS1_Y165_W163C] belongs inactive: 1.33; to RRGTRYMSSRP [RPL21_Y13_F15S], inactive: 0.305; to QNVADYMRCLM [RPL5_Y207_Y210C], inactive: 0.728.
The same measure, in the same setting: as for CDDGKYVYVVT [RPS6KA3_Y488_Y483C], the figure is inactive: 0.769; as for IHTDAYVRAMT [RPE65_Y89_R85H], inactive: 0.696.
For GEKKAYVRLAP [RPL23A_Y137], the enrichment score is inactive: 0.651.
For the molecule HEKKVYSFCGT [RPS6KA3_Y226_A225V], the enrichment score was inactive: 0.79.
The same measure, in the same setting: to TQPSPYAVFLF [RPGRIP1_Y823_R827L_YF] belongs inactive: 0.651.
For the molecule KRIKLYNQEND [RPGRIP1L_Y448], the enrichment score was inactive: 0.74.
With GDKKAYVRLAP [RPL23A_Y137_E133D], the enrichment score was inactive: 0.543.
The same measure, in the same setting: as for SPYAVYLFFTF [RPGRIP1_Y826_R827L], the figure is inactive: 0.621; as for VSLEAYCKHKY [RXRA_Y403_A398V], inactive: 0.422.
On the same count and under the same terms, as for TQPSPYAVYLF [RPGRIP1_Y823_R827L], the figure is inactive: 1.29.
Turning to YDDGKYVYVVT [RPS6KA3_Y488], the enrichment score is inactive: 0.765.

Another assay has as its target SHP2 N-SH2 domain wild-type. The assay is described as above. The following applies: peptide library: pTyr-Var.
Consider IRTDAYVRAMT [RPE65_Y89], for which the enrichment score is inactive: 0.803.
The same measure, in the same setting: as for QNVADYMRYLM [RPL5_Y207], the figure is inactive: 0.771; as for VPLATYMQIFK [RPL21_Y30_R32Q_YF], inactive: 0.725.
The same measure, in the same setting: as for IRTDAYVQAMT [RPE65_Y89_R91Q], the figure is inactive: 0.887.
Still for that read-out and setting: to IGVGSYSVCKR [RPS6KA3_Y433] belongs inactive: 0.968; to RLNCIYYKDQT [RS1_Y165_W163C], inactive: 1.49; to RRGTRYMSSRP [RPL21_Y13_F15S], inactive: 0.228.
For QNVADYMRCLM [RPL5_Y207_Y210C], the enrichment score is inactive: 0.727.
Same read-out and setting: as for CDDGKYVYVVT [RPS6KA3_Y488_Y483C], the figure is inactive: 1.15.
On the same count and under the same terms, to IHTDAYVRAMT [RPE65_Y89_R85H] belongs inactive: 0.907; to GEKKAYVRLAP [RPL23A_Y137], inactive: 0.9.
Consider HEKKVYSFCGT [RPS6KA3_Y226_A225V], for which the enrichment score is inactive: 0.824.
Same read-out and setting: to TQPSPYAVFLF [RPGRIP1_Y823_R827L_YF] belongs inactive: 0.885; to KRIKLYNQEND [RPGRIP1L_Y448], inactive: 0.769; to GDKKAYVRLAP [RPL23A_Y137_E133D], inactive: 0.695.
The same measure, in the same setting: as for SPYAVYLFFTF [RPGRIP1_Y826_R827L], the figure is inactive: 0.715.
Turning to VSLEAYCKHKY [RXRA_Y403_A398V], the enrichment score is inactive: 0.664.
On to TQPSPYAVYLF [RPGRIP1_Y823_R827L], for which the enrichment score is inactive: 1.34.
As for YDDGKYVYVVT [RPS6KA3_Y488], the enrichment score was inactive: 0.685.
